Three molecules from PMC4558169 can be followed below.

Amino acid sequences for entries named in this document (tags omitted).
UniProt P13861: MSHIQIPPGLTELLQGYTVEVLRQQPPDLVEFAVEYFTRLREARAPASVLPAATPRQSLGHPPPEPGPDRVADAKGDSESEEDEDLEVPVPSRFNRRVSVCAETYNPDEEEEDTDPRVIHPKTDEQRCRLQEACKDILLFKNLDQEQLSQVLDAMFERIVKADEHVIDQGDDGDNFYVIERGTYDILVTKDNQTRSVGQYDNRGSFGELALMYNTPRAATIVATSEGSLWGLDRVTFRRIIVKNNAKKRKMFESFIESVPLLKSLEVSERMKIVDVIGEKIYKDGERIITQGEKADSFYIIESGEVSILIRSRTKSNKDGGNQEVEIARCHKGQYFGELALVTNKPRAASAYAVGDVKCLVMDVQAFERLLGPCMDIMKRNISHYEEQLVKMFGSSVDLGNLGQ

Assay [1] concerns the target Flag-tagged retinoic acid induced 16 (RAI16), full length (UniProt Q86V87). As to the kind of experiment: co-IP; two tagged proteins (Flag, Ha, His or Myc) co-expressed in HEK293T cells; lysates immunoprecipitated with an anti-tag antibody, partner detected by immunoblot with the other anti-tag antibody; in Figure 4E cells untreated, treated 10 min with forskolin or with forskolin + PKImyr.

Assay [2] concerns the target T1, Flag-tagged RAI16 fragment 251-500 (UniProt Q86V87).
T1 sequence: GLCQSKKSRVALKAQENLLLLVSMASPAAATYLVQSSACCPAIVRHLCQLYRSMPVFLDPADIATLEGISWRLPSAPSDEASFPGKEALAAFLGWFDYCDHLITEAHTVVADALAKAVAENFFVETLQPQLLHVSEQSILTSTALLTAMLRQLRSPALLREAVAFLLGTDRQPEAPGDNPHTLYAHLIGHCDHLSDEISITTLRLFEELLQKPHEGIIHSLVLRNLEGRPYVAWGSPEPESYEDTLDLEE
The assay is described as above.

For assay [3], the target named is endogenous RAI16 (human (endogenous in HEK293T)) (UniProt Q86V87). As to the kind of experiment: co-IP; endogenous proteins of HEK293T lysates, immunoprecipitated with an antibody against one protein and blotted for the other.
The target of assay [4] is Flag-tagged retinoic acid induced 16 (RAI16), full length (UniProt Q86V87). As to the kind of experiment: co-IP; Flag-tagged RAI16 or its mutants expressed in HEK293T cells, alone or with Ha-tagged PKA-RIIα; anti-Flag immunoprecipitation, endogenous 14-3-3θ detected with anti-14-3-3θ antibody; cells untreated, treated with forskolin or with forskolin + PKImyr.
Assay [5] deals with T2, Flag-tagged RAI16 S325A mutant (UniProt Q86V87).
T2 sequence: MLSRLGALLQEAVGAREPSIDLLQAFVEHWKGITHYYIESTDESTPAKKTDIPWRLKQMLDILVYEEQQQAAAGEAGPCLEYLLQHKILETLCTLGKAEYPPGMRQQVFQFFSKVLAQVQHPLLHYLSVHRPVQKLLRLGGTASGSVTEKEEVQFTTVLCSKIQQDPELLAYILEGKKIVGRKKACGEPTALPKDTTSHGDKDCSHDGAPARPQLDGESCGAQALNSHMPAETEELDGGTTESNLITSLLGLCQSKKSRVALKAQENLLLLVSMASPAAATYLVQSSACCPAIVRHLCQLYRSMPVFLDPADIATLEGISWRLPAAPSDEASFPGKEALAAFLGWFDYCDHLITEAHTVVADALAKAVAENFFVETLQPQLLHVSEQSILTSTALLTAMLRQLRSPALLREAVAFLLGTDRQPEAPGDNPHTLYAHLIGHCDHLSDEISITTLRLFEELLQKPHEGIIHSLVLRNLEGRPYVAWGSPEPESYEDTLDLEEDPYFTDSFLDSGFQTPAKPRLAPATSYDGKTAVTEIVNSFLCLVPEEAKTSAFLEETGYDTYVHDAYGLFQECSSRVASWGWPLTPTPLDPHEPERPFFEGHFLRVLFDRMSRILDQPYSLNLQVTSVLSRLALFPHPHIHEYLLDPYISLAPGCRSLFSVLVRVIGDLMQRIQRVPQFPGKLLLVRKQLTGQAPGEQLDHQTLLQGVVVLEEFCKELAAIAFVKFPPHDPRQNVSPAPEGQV
The assay is described as above.

The target of assay [6] is His-tagged fusion protein of PKA-RIIα, purified (human) (UniProt P13861). As to the kind of experiment: ELISA; 2 ug purified PKA-RIIα coated overnight at 4°C, blocked with 3% BSA in PBST; purified RAI16 alone or with sHt31 or sYF, 1 h at 37°C; detected with anti-RAI16 antibody, HRP anti-rabbit IgG and TMB; both purified. Background: In an ELISA, binding on a coated surface is turned into a signal by an enzyme label.

The target in assay [7] is Ha-tagged PKA-RIIα (type II regulatory subunit of PKA), full length (human) (UniProt P13861). As to the kind of experiment: co-IP; competition: peptide sHt31 or sYF against the co-precipitation of Flag-tagged RAI16 and Ha-tagged PKA-RIIα from HEK293T cells (not told whether added to cells or lysate); only the binder purified.

Results are given in words; binding and its absence hold for the method and conditions named. For some of these results: Binding seen in cells or lysates may run through a third protein. Some results given as binding are weak or reduced against the parent protein; the word gives no strength. For some of these results: Where a sequence is shown, tags or fusion partners need not be part of it.

B1: Myc-tagged 14-3-3θ, full length (protein, UniProt P27348 1-245)
chain: MEKTELIQKAKLAEQAERYDDMATCMKAVTEQGAELSNEERNLLSVAYKNVVGGRRSAWRVISSIEQKTDTSDKKLQLIKDYREKVESELRSICTTVLELLDKYLIANATNPESKVFYLKMKGDYFRYLAEVACGDDRKQTIDNSQGAYQEAFDISKKEMQPTHPIRLGLALNFSVFYYEILNNPELACTLAKTAFDEAIAELDTLNEDSYKDSTLIMQLLRDNLTLWTSDSAGEECDAAEGAEN
For the molecule B1, the binding entry in assay [1] and in assay [2] was “binds” in each case.

B2: endogenous 14-3-3θ (protein, UniProt P27348 1-245)
chain: B1 chain
For B2, the binding result in assay [3] is “binds”; in assay [4], “binds”; in assay [5], “no binding”.

B3: Peptide sYF (Aa348-373 of RAI16) (peptide)
peptide: YCDHLITEAHTVVADALAKAVAENF
With B3, the binding result in assay [6] and in assay [7] was “binds” each time.
